Experimental data from PubChem BioAssay (Tox21).
“And” between values parts separate entries of the source, which are not always exact repeats. Identical values can stand only once. The shares of active, inactive and inconclusive entries below differ from those in the screen. For some of these results: Potencies beside an inconclusive call are fits to weak or partial responses and may not hold up. The source made the active and inactive calls. Unless noted, the call rests on the fitted dose curve; in most records, active means well fitted curve in the direction sought with a large enough effect in the repeat runs; inconclusive means weak or mixed curves; inactive means no such curve, though single readings can be large; an effect the other way counts as inactive or inconclusive.

Legend:
[1] = molecular target: Peroxisome proliferator-activated receptor delta (Homo sapiens) (UniProt Q03181); assay: qHTS assay to identify small molecule antagonists of the peroxisome proliferator-activated receptor delta (PPARd) signaling pathway (AID 743215; active means well fitted inhibition curve with a large enough effect in the signal ratio in the repeat runs, not every such curve was filed as active; inconclusive means weak or mixed curves, or effect the other way; inactive means no such curve, though single readings can be large or run the other way; the % refers to the signal ratio;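 further: cells stimulated with agonist L165041 at 300 nM final during compound exposure; on the % scale 0 is the no-effect control and ±100 the full control effect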); details: HEK293H PPARd-UAS-bla, beta-lactamase FRET ratio, antagonist, 17 h; ratio activity, negative = inhibition: at 62 µM (top of the series) unless noted
Chain of UniProt Q03181 (Q03181 whole entry, looked up): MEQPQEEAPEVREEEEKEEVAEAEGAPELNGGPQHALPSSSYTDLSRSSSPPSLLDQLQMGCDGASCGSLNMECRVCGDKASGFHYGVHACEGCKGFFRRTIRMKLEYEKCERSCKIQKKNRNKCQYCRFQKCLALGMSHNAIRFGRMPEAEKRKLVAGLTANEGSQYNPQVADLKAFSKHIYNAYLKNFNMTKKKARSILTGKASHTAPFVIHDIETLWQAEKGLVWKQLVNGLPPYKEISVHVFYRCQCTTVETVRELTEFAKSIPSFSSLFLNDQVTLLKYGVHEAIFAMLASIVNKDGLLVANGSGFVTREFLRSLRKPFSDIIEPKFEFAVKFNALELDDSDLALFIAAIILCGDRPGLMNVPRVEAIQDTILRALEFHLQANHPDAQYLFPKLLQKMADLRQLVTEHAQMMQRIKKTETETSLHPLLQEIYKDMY
Method in brief: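 Fluorescence from cleaved LiveBLAzer B/G FRET substrate (2 h, room temperature) reports PPARd-driven beta-lactamase in HEK293H UAS-bla cells. Cells had been treated 17 h at 37 C with compound plus 300 nM final L165041.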

[2] = qHTS assay to identify small molecule antagonists of the retinoid-related orphan receptor gamma (ROR-gamma) signaling pathway - cell viability counter screen (AID 1159520); further: potency means the concentration at half of the fitted maximal effect; nearly all actives have a fitted effect of over 50% in size
Method in brief: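 Tet-on ROR gamma CHO cells (1,000/well) were plated 4 hr, given compounds in DMSO for 2 hr at 37 C, then induced with 1 uM final doxycycline for 16 hr. Viability was read as ATP by CellTiter-Glo luminescence after 30 min.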

[3] = molecular target: Nuclear receptor ROR-gamma (Homo sapiens) (UniProt P51449); assay: qHTS assay to identify small molecule antagonists of the retinoid-related orphan receptor gamma (ROR-gamma) signaling pathway (AID 1159521; further: potency means the concentration at half of the fitted maximal effect; nearly all actives have a fitted effect of over 50% in size)
Method in brief: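 Test compounds were applied to Tet-on RORγ CHO cells 2 h ahead of doxycycline hyclate (1 uM final). Luciferase reporter activity was quantified by luminescence after 16 h at 37 C and 5% CO2.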

[4] = qHTS assay to identify small molecule agonists of the AP-1 signaling pathway (AID 1159526; calls by dose curve; further: potency means the concentration at half of the fitted maximal effect; on activation: on the % scale 0 is the no-effect control and ±100 the full control effect); details: ME-180 (cervical carcinoma) AP-1-bla reporter, beta-lactamase FRET ratio, 5 h; activation: at 76.8 µM (top of the series) unless noted
[5] = molecular target: Retinoic acid receptor RXR-alpha (Homo sapiens) (UniProt P19793); assay: qHTS assay to identify small molecule agonists of the RXR signaling pathway (AID 1159527; calls by dose curve; further: nearly all actives have a fitted effect of over 35% in size; further: potency means the concentration at half of the fitted maximal effect); details: HEK293T RXRa-UAS-bla, beta-lactamase ratio, 16 h; activation: at 76.8 µM (top of the series) unless noted
Chain of UniProt P19793 (P19793 whole entry, looked up): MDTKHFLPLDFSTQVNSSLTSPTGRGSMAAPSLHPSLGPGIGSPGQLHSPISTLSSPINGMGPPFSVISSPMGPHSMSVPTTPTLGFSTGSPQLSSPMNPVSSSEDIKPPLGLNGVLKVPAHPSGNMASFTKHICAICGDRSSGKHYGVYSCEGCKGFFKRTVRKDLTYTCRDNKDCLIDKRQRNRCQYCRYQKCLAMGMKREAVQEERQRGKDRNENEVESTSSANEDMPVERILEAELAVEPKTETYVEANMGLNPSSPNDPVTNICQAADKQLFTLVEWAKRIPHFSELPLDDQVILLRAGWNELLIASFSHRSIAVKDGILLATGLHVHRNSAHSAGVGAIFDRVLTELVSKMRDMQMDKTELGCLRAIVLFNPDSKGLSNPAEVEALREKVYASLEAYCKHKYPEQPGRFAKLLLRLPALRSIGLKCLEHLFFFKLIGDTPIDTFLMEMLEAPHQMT
Method in brief: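 Using 9-cis retinoic acid as the reference agonist, chemicals were tested in HEK 293T cells […] for 16 hr; substrate loading lasted 2 hr at room temperature.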

[6] = qHTS assay to identify small molecule antagonists of the retinoid acid receptor (RAR) signaling pathway - cell viability counter screen (AID 1159551); further: potency means the concentration at half of the fitted maximal effect; nearly all actives have a fitted effect of over 35% in size
Method in brief: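 Viability of C3RL4 cells is quantified from ATP by luminescence after 6 h treatment at 37 C with compounds and 1 uM retinol.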

[7] = molecular target: Peroxisome proliferator-activated receptor delta (Homo sapiens) (UniProt Q03181); assay: qHTS assay to identify small molecule agonists of the peroxisome proliferator-activated receptor delta (PPARd) signaling pathway (AID 743212; calls by dose curve;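 further: HEK293H cells with PPARd UAS beta-lactamase reporter GeneBLAzer system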; further: potency means the concentration at half of the fitted maximal effect; on activation: on the % scale 0 is the no-effect control and ±100 the full control effect); details: HEK293H PPARd-UAS-bla, beta-lactamase FRET ratio, 17 h; activation: at 62.6 µM (top of the series) unless noted
Method in brief: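 Beta-lactamase reporter read by fluorescence (LiveBLAzer B/G FRET, 2 h, room temperature). Test agents, in DMSO, incubated at 37 C with PPARd-bla HEK293H cells.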

[8] = molecular target: Bile acid receptor (Homo sapiens) (UniProt Q96RI1); assay: qHTS assay to identify small molecule antagonists of the farnesoid-X-receptor (FXR) signaling pathway (AID 743217; active means well fitted inhibition curve with a large enough effect in the signal ratio in the repeat runs, not every such curve was filed as active; inconclusive means weak or mixed curves, or effect the other way; inactive means no such curve, though single readings can be large or run the other way; the % refers to the signal ratio; further: potency means the concentration at half of the fitted maximal effect); details: HEK293T FXR-UAS-bla, beta-lactamase ratio, CDCA-stimulated, 16 h; activity change, negative = inhibition: at 62.6 µM (top of the series) unless noted
Chain of UniProt Q96RI1 (Q96RI1 whole entry, looked up): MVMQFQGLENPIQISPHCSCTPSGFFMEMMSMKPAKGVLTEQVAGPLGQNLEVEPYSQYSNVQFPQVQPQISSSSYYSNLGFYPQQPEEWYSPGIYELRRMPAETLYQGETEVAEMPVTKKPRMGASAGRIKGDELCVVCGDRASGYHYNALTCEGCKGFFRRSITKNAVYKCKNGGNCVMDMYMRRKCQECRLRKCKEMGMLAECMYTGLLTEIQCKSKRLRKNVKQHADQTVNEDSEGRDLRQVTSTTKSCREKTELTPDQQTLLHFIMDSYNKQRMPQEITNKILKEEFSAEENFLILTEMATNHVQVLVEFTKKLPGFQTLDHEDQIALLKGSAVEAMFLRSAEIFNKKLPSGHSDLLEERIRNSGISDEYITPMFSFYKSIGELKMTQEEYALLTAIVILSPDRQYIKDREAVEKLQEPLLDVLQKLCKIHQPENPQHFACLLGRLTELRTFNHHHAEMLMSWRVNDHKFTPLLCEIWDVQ
Method in brief: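 FRET fluorescence after 2 h room-temperature LiveBLAzer loading gives the readout. Prior step: FXR-bla HEK 293T cells, seeded and incubated 5 h, received test compounds plus 50 uM final CDCA for 16 h at 37 °C.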

[9] = molecular target: Bile acid receptor (Homo sapiens) (UniProt Q96RI1); assay: qHTS assay to identify small molecule agonists of the farnesoid-X-receptor (FXR) signaling pathway (AID 743220; active means well fitted activation curve with a large enough effect in the signal ratio in the repeat runs, not every such curve was filed as active; inconclusive means weak or mixed curves, or effect the other way; the % refers to the signal ratio; further: potency means the concentration at half of the fitted maximal effect); details: HEK293T FXR-UAS-bla, beta-lactamase FRET ratio, 16 h; activation: at 62.6 µM (top of the series) unless noted
Method in brief: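 FXR-UAS-bla HEK 293T cells carrying a UAS-driven beta-lactamase reporter were plated for 5 h at 37C/5% CO2, then exposed to DMSO-dissolved Tox21 10K compounds for 16 h at 37C. A LiveBLAzer B/G FRET substrate was loaded for 2 h at room temperature before fluorescence reading.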

[10] = molecular target: Vitamin D3 receptor (Homo sapiens) (UniProt P11473); assay: qHTS assay to identify small molecule agonists of the vitamin D receptor (VDR) signaling pathway (AID 743222; calls by dose curve; further: potency means the concentration at half of the fitted maximal effect); details: HEK293T VDR-UAS-bla, beta-lactamase FRET ratio, 16 h; activation: at 63.5 µM (top of the series) unless noted
Chain of UniProt P11473 (P11473 whole entry, looked up): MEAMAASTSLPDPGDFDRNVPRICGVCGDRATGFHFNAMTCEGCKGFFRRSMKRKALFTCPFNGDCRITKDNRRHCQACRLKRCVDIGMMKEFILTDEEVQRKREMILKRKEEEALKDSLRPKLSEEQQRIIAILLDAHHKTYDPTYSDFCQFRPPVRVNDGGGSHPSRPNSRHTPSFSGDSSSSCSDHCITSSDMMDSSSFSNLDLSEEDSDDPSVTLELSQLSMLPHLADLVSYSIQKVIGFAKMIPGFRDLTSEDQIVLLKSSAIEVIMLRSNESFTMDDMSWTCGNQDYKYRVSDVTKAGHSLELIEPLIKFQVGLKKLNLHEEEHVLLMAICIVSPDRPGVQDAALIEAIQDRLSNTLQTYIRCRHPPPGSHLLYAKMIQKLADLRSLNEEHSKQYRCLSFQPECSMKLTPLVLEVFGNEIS
Method in brief: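 Following 4 h attachment at 37C, VDR-bla cells (2,000 per well) received DMSO-dissolved compounds or controls. After 16 h incubation, LiveBLAzer B/G FRET substrate was added and fluorescence read 2 h later at room temperature.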

[11] = qHTS assay to identify small molecule antagonists of the peroxisome proliferator-activated receptor delta (PPARd) signaling pathway - cell viability counter screen (AID 743213); details: PPARd-bla HEK293H viability, CellTiter-Glo luminescence, 17 h; viability change, negative = cytotoxic: at 62 µM (top of the series) unless noted; further: nearly all actives have a fitted effect of over 50% in size; further: potency means the concentration at half of the fitted maximal effect
Method in brief: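 CellTiter-Glo was added to PPARd-bla HEK293H wells following 17 h compound treatment in the presence of 300 nM L165041. Luminescence was recorded after 30 min at room temperature.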

[12] = qHTS assay to identify small molecule agonists of the farnesoid-X-receptor (FXR) signaling pathway - cell viability counter screen (AID 743218); details: FXR-bla HEK293T viability, CellTiter-Glo luminescence, 16 h; viability change, negative = cytotoxic: at 62.6 µM (top of the series) unless noted; further: nearly all actives have a fitted effect of over 45% in size; further: potency means the concentration at half of the fitted maximal effect
Method in brief: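 Readout: CellTiter-Glo luminescence, 30 min RT, multiplexed after the FXR-bla FRET reading. HEK 293T FXR-UAS-bla cells received compound 5 h post-plating and were incubated 16 h at 37 C.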

[13] = molecular target: Vitamin D3 receptor (Homo sapiens) (UniProt P11473); assay: qHTS assay to identify small molecule antagonists of the vitamin D receptor (VDR) signaling pathway (AID 743223; active means well fitted inhibition curve with a large enough effect in the signal ratio in the repeat runs, not every such curve was filed as active; inconclusive means weak or mixed curves, or effect the other way; inactive means no such curve, though single readings can be large or run the other way; the % refers to the signal ratio; further: on the % scale 0 is the no-effect control and ±100 the full control effect); details: VDR-UAS-bla HEK293T, beta-lactamase FRET ratio, 16 h; activity change, negative = inhibition: at 61 µM (top of the series) unless noted
Method in brief: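 Inhibition of agonist-driven VDR signalling is scored in VDR-bla cells: 3 nM final 1alpha,25-dihydroxyvitamin D3 plus compound, 16 h at 37C, then beta-lactamase detection by FRET substrate fluorescence after 2 h.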

[14] = qHTS assay to identify small molecule agonists of the vitamin D receptor (VDR) signaling pathway - cell viability counter screen (AID 743224); details: VDR-bla HEK293T viability, CellTiter-Glo luminescence, 16 h; activity change, negative = cytotoxicity: at 62.6 µM (top of the series); further: potency means the concentration at half of the fitted maximal effect; nearly all actives have a fitted effect of over 50% in size
Method in brief: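 In parallel with the bla FRET readout, cytotoxicity toward VDR-bla cells after 16 h compound exposure was assessed by CellTiter-Glo, with luminescence recorded after a 30 min room-temperature incubation.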

[15] = qHTS assay to identify small molecule antagonists of the vitamin D receptor (VDR) signaling pathway - cell viability counter screen (AID 743225); details: VDR-bla HEK293T viability, CellTiter-Glo luminescence, 16 h; viability change, negative = cytotoxic: at 61 µM (top of the series) unless noted
Method in brief: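 Compounds were pinned onto VDR-bla HEK 293T cells together with 1-alpha,25-dihydroxyvitamin D3 at 3 nM final. After 16 h at 37C and 5% CO2 plus the reporter readout, cell viability was measured by CellTiter-Glo luminescence (30 min, room temperature).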
Tags describe the fitted curve by direction and shape or compound fluorescence and quenching.

CC1=Nc2ccccc2C1(C)C
inconclusive: Potency [2] 30.7 µM [cytotoxic, partial curve, poor fit] | Potency [4] 49 µM [activator, single point] | Potency [5] 17.4 µM [inhibitor] | Potency [6] 68.7 µM [cytotoxic, single point]
active: Potency [3] 17.2 µM
inactive: Potency [1]

COCCOC(=O)C1=C(C)NC(C)=C(C(=O)OC/C=C/c2ccccc2)C1c1cccc([N+](=O)[O-])c1 (stereo not given)
active: Potency [9] 9.44 µM
inconclusive: Potency [7] 37.6 µM | Potency [8] 33.5 µM [inhibitor] | Potency [10] 21.1 µM [rising, partial curve] | Potency [2] 21.1 µM [cytotoxic, partial curve, poor fit] | Potency [3] 37.6 µM [inhibitor, partial curve, poor fit] | activation [4] -9.13% [at 35.3 µM] | Potency [5] 10.7 µM [inhibitor]

O=C(Cl)c1ccc(Cl)cc1Cl
inconclusive: Potency [3] 68.6 µM [inhibitor]
active: Potency [2] 61.1 µM

Oc1c(Cl)cc(Cl)c(Cl)c1Cl
active: Potency [3] 53.3 µM and 61.1 µM
inactive: Potency [5]
inconclusive: activation [7] 4.26% and 0.141% | Potency [11] 21.4 µM [cytotoxic, single point] | Potency [8] 53.8 µM [inhibitor, single point] and 13.8 µM [inhibitor, partial curve, poor fit] | Potency [12] 6.04 µM [cytotoxic, partial curve] and 4.9 µM [cytotoxic, full curve] | activity change, negative = inhibition [13] 8.96% and 19.7% | Potency [14] 15.5 µM [cytotoxic, partial curve, poor fit] | Potency [15] 24 µM [cytotoxic, partial curve, poor fit] and 6.17 µM [cytotoxic, full curve] | Potency [2] 48.6 µM [cytotoxic, partial curve, poor fit]

O=S(=O)(c1ccc(OCc2ccccc2)cc1)c1ccccc1O
inconclusive: Potency [2] 68.6 µM [cytotoxic, partial curve, poor fit] | Potency [3] 17.2 µM [inhibitor, full curve] | Potency [4] 38.9 µM [falling, partial curve] | activation [5] -14.9% | Potency [6] 54.5 µM [cytotoxic, partial curve, poor fit]

C=CC(C)(C)CC(=O)OC
inactive: Potency [11] | Potency [8] | Potency [12] | Potency [10] | Potency [13]
inconclusive: Potency [2] 68.8 µM [cytotoxic, partial curve, poor fit] | Potency [3] 48.7 µM [inhibitor, partial curve, poor fit] | Potency [5] 17.4 µM [activator] | Potency [6] 19.4 µM [rising, full curve]
